About 340 (0.77%) of roughly 44,000 compounds were called active. About 5% were inconclusive and are not listed. The call rests on the fitted dose curve; in most records, active means well fitted inhibition curve with a large enough effect; inconclusive means small, poorly fitted or top-dose-only effect; inactive means flat fitted curve, though single readings scatter. This is one part of the list.
Experiment: Acumen qHTS Assay for Inhibitors of the mTORC1 Signaling Pathway in MEF (Tsc2-/-, p53-/-) Cells: Sytravon;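 further: plate controls were DMSO for no effect and rapamycin for full effect; nearly all actives have a fitted effect of over 50% in size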
Details: phospho-rpS6 immunofluorescence/PI, 24 h; series mostly up to 38.3 µM; activity change, negative = inhibition: at the top concentration
Method in brief: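 Cell-based qHTS: Tsc2-/- p53-/- MEF, 24 h cpd, 37 °C; fix/perm, anti-phospho-S6 Alexa-488 + PI; Acumen 488 nm scan; pS6/PI ratio, % positive cells; rapamycin 7.5 nM = inhibition ref; PI count = viability.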

SMILES | activity change, negative = inhibition
COc1ccc(CNC(=O)Cn2nc(N3CCN(c4ccccc4)CC3)ccc2=O)c(OC)c1 | inactive: 0.189%
CC1=C(C(=O)Nc2ccccc2)C(c2ccncc2)n2nc(SCc3ccccc3F)nc2N1 (stereo unspecified) | inactive: 0%
CCC(C)Nc1oc(-c2ccc(COc3ccc(Cl)cc3)o2)nc1C#N (stereo unspecified) | inactive: -15%
O=C(Nc1ccc(OCc2cc(=O)n3ccccc3n2)cc1)c1ccccc1Cl | inactive: 0.992%
CCC(C)NC(=O)CSc1nc2c(sc3ccccc32)c(=O)n1CCc1ccc(OC)c(OC)c1 (stereo unspecified) | inactive: -0.207%
CCN(CC)c1nc2c(S(=O)(=O)c3cccc(Cl)c3)nnn2c2ccsc12 | inactive: 5.02%
CCn1cc(C(=O)NCc2ccc(C)cc2)c(=O)c2cc(S(=O)(=O)N(C)C3CCCCC3)ccc21 | inactive: -14.9%
CCc1ccc(CN(Cc2ccco2)C(=O)COc2ccc(Cl)c(C)c2)cc1 | inactive: -16.6%
CCN1CCN(C(=O)Cn2c(-c3cccs3)cc3ccccc32)CC1 | inactive: -9.55%
COc1cccc(OCc2cc(=O)n3c(-c4ccccc4)csc3n2)c1 | inactive: 0.0737%
COc1nc(-c2ccccc2)ccc1-c1noc(-c2ccccc2Br)n1 | inactive: 13.5%
COC(=O)c1cccc(NC(=O)c2nsc3ccccc23)c1 | inactive: -3.5%
COc1ccc(CCNC(=O)c2ccc3c(c2)N(Cc2ccccc2F)C(=O)c2ccccc2S3=O)cc1OC (stereo unspecified) | inactive: 6.21%
O=C(CN1C(=O)COc2ccc(S(=O)(=O)N3CCCC3)cc21)N1CCN(c2cccc(C(F)(F)F)c2)CC1 | inactive: -10.2%
CCOc1ccccc1CNC(=O)CCc1c(C)nn(-c2ccc(N3CCOCC3)nn2)c1C | inactive: 2.85%
CCN(CC)S(=O)(=O)c1ccc(C(=O)NCCSc2c(-c3ccc(C)cc3)[nH]c3ccccc23)cc1 | inactive: 1.19%
COc1ccc(N2CCN(S(=O)(=O)CCNC(=O)COc3ccccc3F)CC2)cc1 | inactive: 0%
CCOC(=O)CSc1nc(-c2ccc(Cl)cc2)cc(C(F)(F)F)c1C#N | inactive: -7.04%
Cc1ccc(C(=O)Oc2c(S(=O)(=O)c3ccccc3)c(C)nn2-c2ccccc2)cc1 | inactive: -14.7%
Cc1cn2c(=O)cc(COC(=O)c3cccc(NC(=O)COc4ccccc4C)c3)nc2s1 | inactive: 0%
Cc1ccccc1C(=O)NCCc1csc(-c2ccc(C(F)(F)F)cc2)n1 | inactive: -29.9%

SMILES | activity change, negative = inhibition
COc1ccc(-n2c(-c3ccc(C)cc3)cc3c2CC(C)(C)CC3=O)c(OC)c1 | inactive: -18.2%
Cc1ccc(Cc2nc3ccccc3nc2SCC(=O)N2CCCc3ccccc32)cc1 | inactive: 10.2%
Cc1c(-c2nc(-c3ccccc3F)no2)nnn1-c1cc(F)ccc1F | inactive: -3.81%
Cc1ccc(CNC(=O)CSc2c3c(nc4cc(Cl)ccc24)CCCC3)cc1 | inactive: -6.2%
CCCNC(=O)C(C)n1nc(C)c2c(C)n(-c3ccccc3)nc2c1=O (stereo unspecified) | inactive: -4.57%
O=c1oc2cc(O)ccc2cc1-c1nnc(Nc2ccccc2F)s1 | inactive: -9.14%
CCOc1ccccc1NC(=O)Cn1c(=O)n(Cc2ccco2)c(=O)c2ccc(C(=O)NC3CCCC3)cc21 | inactive: -1.71%
COc1ccc(Cl)cc1NC(=O)Cn1nc(Cc2ccncc2)c2ccccc2c1=O | inactive: -5.7%
Cc1cc(F)ccc1NC1(c2ccccc2)C(=O)c2ccccc2C1=O | inactive: -1.29%
CCc1ccccc1NC(=O)C1CCN(C(=O)N2CC(C)Oc3ccc(Cl)cc32)CC1 (stereo unspecified) | inactive: -3.32%
COc1ccccc1NC(=O)N1CCC(CN2CCc3ccccc3C2)CC1 | inactive: -2.34%
Cc1ccc(OC(=O)CSc2nnc(-c3cccs3)o2)cc1C | inactive: 0.202%
CCn1cc(C(=O)NCCc2ccc(OC)c(OC)c2)c(=O)c2cc(S(=O)(=O)N3CCC(C)CC3)ccc21 | inactive: 2.45%
CCOc1ccc(-n2c(SCC(=O)N3CCCCCC3)nc3c([nH]c4ccccc43)c2=O)cc1 | inactive: -0.326%
CCOc1ccc(N(CC(=O)Nc2ccccc2CC)S(=O)(=O)c2c(C)[nH]c(=O)[nH]c2=O)cc1 | inactive: -7.24%
Cc1ccc(NC(=O)c2sc3nc[nH]c(=O)c3c2C)cc1Cl | inactive: 0.0717%
Cc1ccc(NC(=O)Cn2c(=O)oc3ccccc32)cc1C | inactive: 0.466%
Cc1c(Cl)cccc1-n1ncc(C(=O)NCc2cccs2)c1C1CCN(C(=O)OC(C)(C)C)CC1 | inactive: 1.15%
COC(=O)c1c(NC(=O)c2cc(OC)c(OC)c(OC)c2Br)sc2c1CCC(C)C2 (stereo unspecified) | inactive: -0.531%
Cc1cccc(NC(=O)c2cc(S(=O)(=O)N3CCN(c4ccccc4F)CC3)ccc2F)c1C | inactive: 0.255%
COc1ccc(CNC(=O)CCn2nc(C)c3c(C)n(-c4ccccc4)nc3c2=O)c(OC)c1 | inactive: 0.484%

SMILES | activity change, negative = inhibition
CNC(=O)Cn1c(=O)c2cccn2c2ccc(F)cc21 | inactive: 0.727%
COc1cc(C2c3c(-c4ccc(C)cc4)n[nH]c3C(=O)N2c2ccc(F)cc2)ccc1O (stereo unspecified) | inactive: -11.3%
CC(C)CNc1ncnc2c1nnn2C | inactive: 0.691%
O=C(CCNS(=O)(=O)c1cccc2nsnc12)NCc1ccccc1 | inactive: -15.2%
COc1ccc(CNC(=O)c2ccc3nc(CCc4ccccc4)oc3c2)c(OC)c1 | inactive: -2.73%
COc1ccc(OC)c(C2C(C(=O)N3CCCCC3)=C(C)Nc3nc4ccccc4n32)c1 (stereo unspecified) | inactive: -1.71%
CC(C)(C)c1ccc(CN(Cc2ccco2)c2cnc(S(C)(=O)=O)nc2C(=O)Nc2ccc(F)cc2)cc1 | inactive: -5.07%
Cc1cc(C)c(NC(=O)Cn2c(=O)nc(-c3ccccc3)c3cc(Cl)ccc32)c(C)c1 | inactive: 12.2%
COc1cc(NC(=O)N2CCC3(CC2)Nc2cc(F)ccc2-n2cccc23)cc(OC)c1OC | inactive: 4.38%
Cc1cc(=O)n(Cc2cccc(F)c2)c2c1c(C)nn2-c1cccc(F)c1 | inactive: -12.2%
CCc1cccc(CC)c1-n1nnc2c(sc3nc(C)cc(C)c32)c1=O | inactive: -0.501%
Cc1ccccc1CN1c2ccccc2-c2nc(SCC(N)=O)ncc2S1(=O)=O | inactive: 0.493%
CCc1ccc(-c2nn(CC(=O)Nc3ccccc3C)c3c2cnc2ccc(C)cc23)cc1 | inactive: -4.51%
O=C(CSc1nc(-c2ccc(F)cc2)[nH]c1-c1ccccc1)Nc1ccccc1 | inactive: 8.53%
Clc1ccc(OCc2nc3ccccc3n2Cc2ccccc2)c(Cl)c1 | inactive: -4.78%
COc1cc(/C=C/c2nc(C#N)c(NCCc3ccccc3)o2)cc(OC)c1OC | inactive: -17.1%
CC(C)(C)C1CCc2c(sc3nnn(CCOc4ccccc4)c(=O)c23)C1 (stereo unspecified) | inactive: 2.42%
Cc1ccc(C)c(NC(=O)c2nn(C)c3c2CS(=O)(=O)c2ccccc2-3)c1 | inactive: -12.4%
COc1cc(NC(=O)c2nc3ccccc3nc2N2CCCCC2)cc(OC)c1OC | inactive: 0.808%

From PubChem BioAssay AID493208 (National Center for Advancing Translational Sciences (NCATS), 2011)
